Assay results taken from patent US20240376185A1.

B1: SVG03L (VHH, not shown: small tags and cut ends)
VHH: QVQLQESGGGLVQAGGSLRLSCAASGRTFSNYVMGWFRQAPGKEREFVSAISWNGVSTFYADSVKGRFTISRDNAKNTVYLQMNSLKPEDTAVYYCAADERFVVRYNYWGQGTQVTVSS
B2: SVG24L (VHH, not shown: small tags and cut ends)
VHH: QVQLQQSGGGLVQAGGSLRLSCAASGRTFSTYNIAWFRQAPGKEREFVTAITWGSGNTYYADSVKGRFTISRDNAKNTVFLQMNSLKPDDTAVYYCAARRSLGPTMAFAYEYWGQGTQVTVSS
B3: SVG23L (VHH, not shown: small tags and cut ends)
VHH: QVQLQESGGGLVQAGGSLRLSCAASGRAFGSYTMNWFRQAPGKERDFVAGIMSSGMNTWYADSVKGRFTISRDNAKNTVYLQMNSLKPEDTAVYYCASRPRSTMTSGRYLYDYWGQGTQVTVSS
B4: SVG07L (VHH, not shown: small tags and cut ends)
VHH: QVQLQESGPGLVKPSQTLSLTCTVSGGSITTTAYAWSWIRQPPGKGLEWMGAIRFDGTTDYSPSLKSRISISRDTSNNQFSLRMSSVTPEDTAVYYCARYGVVSDHGGLDYWGQGTQVTVSS
B5: SVG18L (VHH, not shown: small tags and cut ends)
VHH: QVQLQQSGGGLVQPGGSLRLSCAASGFTFSSYAMSWVRQAPGKGLEWVSAINSGGDIISYADSVKGRFTISRDNAKNTLYLQMNSLKPEDTAVYYCAKSPIVRTYGGYDYWGQGTQVTVSS
B6: SVG19L (VHH, not shown: small tags and cut ends)
VHH: QVQLQQSGGGLVQPGGSLRLSCAASGFTFSSYAMSWVRQAPGKGLEWVSAINSGGGSTSYADSVKGRFTISRDNAKNTLYLQMNSLKPEDTAVYYCAKDFDPWGVGTGGYDYWGQGTQVTVSS
B7: SVA04L (VHH, not shown: small tags and cut ends)
VHH: QVQLQQSGGGLVQAGGSLRLACAASGRTLSSYVMGWFRQAPGKEREFVAAISWSGGSTYYADSVKGRFTISRDNAKNTVYLQMNSLKPEDTAVYYCAATLRGSNRYYSGRVYDYWGQGTQVTVSS

Molecular target: mouse gamma globulin (mouse)
Test: ELISA on coated antigen

Compared with B1, B2 is lower in maximal absorbance value at 450 nm (background subtracted): 0.093 A450 for the first, 0.091 A450 for the second.

First: B3
Second: B4
The maximal absorbance value at 450 nm (background subtracted) of the first is lower: 0.068 A450 for the first, 0.073 A450 for the second.

Going from B5 to B6, the maximal absorbance value at 450 nm (background subtracted) rises from 0.075 A450 to 0.136 A450.

Molecular target: horse IgG Fc fragment (horse)
Test: ELISA on coated antigen

First: B1
Second: B2
The SDA Effective Concentration resulting in A450 nm = 0.2 of the first is 3.1-fold lower: 35 ng/mL for the first, 109 ng/mL for the second.

Compared with B1, B2 is lower in maximal absorbance value at 450 nm (background subtracted): 1.44 A450 for the first, 1.18 A450 for the second.

Compared with B3, B4 is higher in maximal absorbance value at 450 nm (background subtracted): 0.063 A450 for the first, 0.066 A450 for the second.

Compared with B5, B6 is higher in maximal absorbance value at 450 nm (background subtracted): 0.064 A450 for the first, 0.068 A450 for the second.

Molecular target: chicken gamma globulin (chicken)
Test: ELISA on coated antigen

B5 and B6 are within 1.5-fold of each other in SDA Effective Concentration resulting in A450 nm = 0.4: 45 ng/mL for the first, 65 ng/mL for the second.

Molecular target: horse IgG (horse)
Test: ELISA on coated antigen

First: B1
Second: B6
The SDA Effective Concentration resulting in A450 nm = 0.4 of the first is 13-fold lower: 16 ng/mL for the first, 212 ng/mL for the second.

Molecular target: cat gamma globulin (cat)
Test: ELISA on coated antigen

First: B1
Second: B2
The maximal absorbance value at 450 nm (background subtracted) of the first is lower: 0.088 A450 for the first, 0.108 A450 for the second.

Going from B3 to B4, the maximal absorbance value at 450 nm (background subtracted) rises from 0.071 A450 to 0.116 A450.

First: B5
Second: B6
The maximal absorbance value at 450 nm (background subtracted) of the first is lower: 0.233 A450 for the first, 0.583 A450 for the second.

First: B5
Second: B6
The SDA Effective Concentration resulting in A450 nm = 0.2 of the first is 12-fold higher: 683 ng/mL for the first, 58 ng/mL for the second.

Molecular target: human gamma globulin (human)
Test: ELISA on coated antigen

Going from B1 to B2, the maximal absorbance value at 450 nm (background subtracted) falls from 0.193 A450 to 0.139 A450.

First: B3
Second: B4
The maximal absorbance value at 450 nm (background subtracted) of the first is lower: 0.121 A450 for the first, 0.164 A450 for the second.

First: B5
Second: B6
The maximal absorbance value at 450 nm (background subtracted) of the first is lower: 0.142 A450 for the first, 0.249 A450 for the second.

For B6, the SDA Effective Concentration resulting in A450 nm = 0.2 was 223 ng/mL.

Molecular target: dog IgG (dog)
Test: ELISA on coated antigen

Compared with B1, B2 is higher in maximal absorbance value at 450 nm (background subtracted): 0.08 A450 for the first, 0.847 A450 for the second.

First: B3
Second: B4
The maximal absorbance value at 450 nm (background subtracted) of the first is higher: 0.618 A450 for the first, 0.242 A450 for the second.

Compared with B5, B6 is higher in maximal absorbance value at 450 nm (background subtracted): 0.743 A450 for the first, 0.876 A450 for the second.

Compared with B2, B3 is 5-fold higher in SDA Effective Concentration resulting in A450 nm = 0.2: 50 ng/mL for the first, 252 ng/mL for the second.

Compared with B4, B5 is 12-fold lower in SDA Effective Concentration resulting in A450 nm = 0.2: 441 ng/mL for the first, 37 ng/mL for the second.

B6 gave an SDA Effective Concentration resulting in A450 nm = 0.2 of 29 ng/mL.

Molecular target: guinea pig IgG (guinea pig)
Test: ELISA on coated antigen

Compared with B1, B2 is lower in maximal absorbance value at 450 nm (background subtracted): 0.114 A450 for the first, 0.094 A450 for the second.

Compared with B3, B4 is higher in maximal absorbance value at 450 nm (background subtracted): 0.076 A450 for the first, 0.137 A450 for the second.

Compared with B5, B6 is higher in maximal absorbance value at 450 nm (background subtracted): 0.146 A450 for the first, 0.318 A450 for the second.

With B6 the SDA Effective Concentration resulting in A450 nm = 0.2 was 126 ng/mL.

Molecular target: bovine IgG (bovine)
Test: ELISA on coated antigen

First: B1
Second: B2
The maximal absorbance value at 450 nm (background subtracted) of the first is lower: 0.083 A450 for the first, 0.087 A450 for the second.

Going from B3 to B4, the maximal absorbance value at 450 nm (background subtracted) rises from 0.077 A450 to 0.108 A450.

Compared with B5, B6 is higher in maximal absorbance value at 450 nm (background subtracted): 0.101 A450 for the first, 0.322 A450 for the second.

For B6, the SDA Effective Concentration resulting in A450 nm = 0.2 was 127 ng/mL.

Molecular target: dog Fc fragment (dog)
Test: ELISA on coated antigen

Going from B1 to B2, the maximal absorbance value at 450 nm (background subtracted) rises from 0.146 A450 to 1.45 A450.

First: B3
Second: B4
The maximal absorbance value at 450 nm (background subtracted) of the first is higher: 1.4 A450 for the first, 0.073 A450 for the second.

Compared with B5, B6 is higher in maximal absorbance value at 450 nm (background subtracted): 0.071 A450 for the first, 0.073 A450 for the second.

Going from B2 to B3, the SDA Effective Concentration resulting in A450 nm = 0.2 rises from 28 ng/mL to 78 ng/mL (2.8-fold).

Molecular target: swine IgG (swine)
Test: ELISA on coated antigen

Compared with B1, B2 is higher in maximal absorbance value at 450 nm (background subtracted): 0.105 A450 for the first, 0.132 A450 for the second.

First: B3
Second: B4
The maximal absorbance value at 450 nm (background subtracted) of the first is lower: 0.089 A450 for the first, 0.103 A450 for the second.

Compared with B5, B6 is higher in maximal absorbance value at 450 nm (background subtracted): 0.1 A450 for the first, 0.114 A450 for the second.

Molecular target: dog Fab fragment (dog)
Test: ELISA on coated antigen

Compared with B1, B2 is higher in maximal absorbance value at 450 nm (background subtracted): 0.083 A450 for the first, 0.089 A450 for the second.

First: B3
Second: B4
The maximal absorbance value at 450 nm (background subtracted) of the first is lower: 0.065 A450 for the first, 0.21 A450 for the second.

First: B5
Second: B6
The maximal absorbance value at 450 nm (background subtracted) of the first is lower: 1.17 A450 for the first, 1.22 A450 for the second.

First: B4
Second: B5
The SDA Effective Concentration resulting in A450 nm = 0.2 of the first is 28-fold higher: 818 ng/mL for the first, 29 ng/mL for the second.

Binder B6 has an SDA Effective Concentration resulting in A450 nm = 0.2 of 26 ng/mL.

Molecular target: horse Fab fragment (horse)
Test: ELISA on coated antigen

Compared with B1, B2 is higher in maximal absorbance value at 450 nm (background subtracted): 0.096 A450 for the first, 0.194 A450 for the second.

Compared with B3, B4 is higher in maximal absorbance value at 450 nm (background subtracted): 0.074 A450 for the first, 0.085 A450 for the second.

Compared with B5, B6 is higher in maximal absorbance value at 450 nm (background subtracted): 0.144 A450 for the first, 0.303 A450 for the second.

Binder B6 has an SDA Effective Concentration resulting in A450 nm = 0.2 of 305 ng/mL.

Molecular target: horse F(ab')2 fragment (horse)
Test: ELISA on coated antigen

First: B1
Second: B2
The maximal absorbance value at 450 nm (background subtracted) of the first is higher: 0.132 A450 for the first, 0.089 A450 for the second.

First: B3
Second: B4
The maximal absorbance value at 450 nm (background subtracted) of the first is lower: 0.078 A450 for the first, 0.1 A450 for the second.

Going from B5 to B6, the maximal absorbance value at 450 nm (background subtracted) rises from 0.149 A450 to 0.299 A450.

With B6 the SDA Effective Concentration resulting in A450 nm = 0.2 was 215 ng/mL.

Molecular target: sheep gamma globulin (sheep)
Test: ELISA on coated antigen; 0.1 subtracted

Compared with B1, B2 is lower in maximal absorbance value at 450 nm (background subtracted): 0.18 A450 for the first, 0.144 A450 for the second.

Going from B3 to B4, the maximal absorbance value at 450 nm (background subtracted) rises from 0.101 A450 to 0.114 A450.

Compared with B5, B6 is higher in maximal absorbance value at 450 nm (background subtracted): 0.131 A450 for the first, 0.162 A450 for the second.

Molecular target: chicken gamma globulin (chicken)
Test: ELISA on coated antigen; 0.2 subtracted

Going from B1 to B2, the maximal absorbance value at 450 nm (background subtracted) falls from 0.079 A450 to 0.069 A450.

First: B3
Second: B4
The maximal absorbance value at 450 nm (background subtracted) of the first is lower: 0.064 A450 for the first, 0.074 A450 for the second.

First: B5
Second: B6
The maximal absorbance value at 450 nm (background subtracted) of the first is higher: 0.47 A450 for the first, 0.397 A450 for the second.

Molecular target: horse IgG (horse)
Test: ELISA on coated antigen; 0.2 subtracted

First: B1
Second: B2
The maximal absorbance value at 450 nm (background subtracted) of the first is higher: 1.39 A450 for the first, 0.088 A450 for the second.

Compared with B3, B4 is higher in maximal absorbance value at 450 nm (background subtracted): 0.056 A450 for the first, 0.074 A450 for the second.

Going from B5 to B6, the maximal absorbance value at 450 nm (background subtracted) rises from 0.127 A450 to 0.253 A450.

Molecular target: dog albumin (dog) (UniProt P49822)
Test: ELISA on coated albumin

Chain of UniProt P49822 (P49822 25-608 limits assumed): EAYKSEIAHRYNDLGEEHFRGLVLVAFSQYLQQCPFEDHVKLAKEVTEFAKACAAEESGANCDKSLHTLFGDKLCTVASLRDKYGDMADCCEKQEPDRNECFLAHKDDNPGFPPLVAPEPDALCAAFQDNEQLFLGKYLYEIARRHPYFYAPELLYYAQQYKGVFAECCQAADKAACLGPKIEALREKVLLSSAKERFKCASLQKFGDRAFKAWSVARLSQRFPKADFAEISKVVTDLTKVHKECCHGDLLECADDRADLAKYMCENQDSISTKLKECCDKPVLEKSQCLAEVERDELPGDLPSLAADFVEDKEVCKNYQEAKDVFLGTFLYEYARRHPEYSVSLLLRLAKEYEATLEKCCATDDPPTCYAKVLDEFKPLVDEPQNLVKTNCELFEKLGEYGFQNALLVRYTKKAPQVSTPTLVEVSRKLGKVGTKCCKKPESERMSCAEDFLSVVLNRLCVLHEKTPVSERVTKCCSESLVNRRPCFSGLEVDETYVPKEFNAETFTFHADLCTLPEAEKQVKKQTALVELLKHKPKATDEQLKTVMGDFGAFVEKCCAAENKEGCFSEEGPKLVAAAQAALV

B7 gave a maximal absorbance value at 450 nm of 0.069 A450.

Molecular target: Equine IgG (Fc) (horse)
Test: BLI (Octet Red96), SDA on NTA sensor, IgG Fc as analyte

Going from B1 to B2, the Kd rises from 0.43 nM to 3.45 nM (8-fold).

B1 and B2 are within 1.5-fold of each other in koff: 0.000491 s⁻¹ for the first, 0.000353 s⁻¹ for the second.

First: B1
Second: B2
The kon of the first is 11-fold higher: 1.14e+06 M⁻¹ s⁻¹ for the first, 102000 M⁻¹ s⁻¹ for the second.

Molecular target: Canine IgG (Fc) (dog)
Test: as above

Compared with B2, B3 is 10-fold lower in Kd: 2.22 nM for the first, 0.215 nM for the second. The second binds more tightly here.

First: B2
Second: B3
The koff of the first is 1.5-fold lower: 0.000344 s⁻¹ for the first, 0.000521 s⁻¹ for the second.

First: B2
Second: B3
The kon of the first is 16-fold lower: 155000 M⁻¹ s⁻¹ for the first, 2.43e+06 M⁻¹ s⁻¹ for the second.
